According to ChEMBL document CHEMBL4888484, “Replenishing the malaria drug discovery pipeline: Screening and hit evaluation of the MMV Hit Generation Library 1 (HGL1) against asexual blood stage Plasmodium falciparum ,using a nano luciferase reporter read-out” (2022):
The whole screen tested about 150,000 compounds, of which about 540 (0.36%) showed an effect of 50% or more. The list shows a part of the results.

Test system: Plasmodium falciparum
Assay: Primary screen in NF54 nanoGlo assay, in single point, at 2uM, 72h; a lower Z score goes with more inhibition
Assay type: functional, Erythrocyte
Details: timepoint 72 hour

| SMILES | % Inhibition [%] | Z score |
| --- | --- | --- |
| CC(NC(=O)N[C@@H]1C=C[C@H](CO)C1)c1ccncc1F (some centres undefined) | 37 | -5.39 |
| Cc1nc2ccccc2c(N2CCC(c3nncn3C)CC2)c1C | -10 | 1.67 |
| Cc1ccc(NC(=O)c2cccc(F)c2)c(-c2nc3ccccc3nc2O)c1 | -15 | 1.64 |
| Fc1ccc(-c2noc(-c3ccc(N4CCC5(CC4)OCCO5)nc3)n2)cc1 | -10 | 1.19 |
| Cc1nc2ccnn2cc1C(=O)N1C[C@@H](C)CN(C)c2ccccc21 | -4 | 0.6 |
| Cn1c(NC(=O)c2ccc(F)cc2)c(-c2cccc3ccccc23)c(=O)c2ccccc21 | -3 | 0.41 |
| Cc1csc(NC(=O)N2CCC(C)[S+]([O-])CC2)n1 (centres undefined) | -15 | 2.38 |
| O=C(CCc1ccsc1)N1CC[C@H](O)C12CCCC2 | -4 | 0.54 |
| C[C@@]1(CO)CN(C(=O)c2ccc(Cl)cc2)C[C@@H]2CN(C3CCC3)CCN21 | 0 | -0.01 |
| Cc1ncn(CC2(O)CCC(C)CC2)c(=O)c1C (centres undefined) | -8 | 1.25 |
| CCn1ccc(NC(=O)c2ccsc2)n1 | -7 | 1.27 |
| COc1ccc2cc(C(=O)N3CC(F)(F)C[C@H]3COc3cccnc3)[nH]c2c1 | -5 | 0.79 |
| COc1ccc(C(=O)NC2CCCCCC2)cn1 | -4 | 0.84 |
| O=C1CC[C@H](N2CCN(C(=O)c3ccc(OC(F)F)cc3)CC2)CCN1 | -5 | 1.01 |
| C[C@@H](C(=O)NCc1ccc(N2CCCC2=O)cc1)n1cccn1 | -9 | 1.69 |
| O=C(Cc1cccc(Cl)c1)N1CC[C@@]2(CCCN(CC3CC3)C2=O)C1 | -23 | 2.12 |
| COc1ccccc1CC(=O)N[C@H]1CCCN(CCCc2ccccc2)C1 | -11 | 1.54 |
| Cc1ccc(F)cc1-n1ccnc1C(C)(C)CN1CCOCC1 | -6 | 0.89 |
| CCN1CCN(C(=O)Nc2ccc(C(C)=O)cc2)[C@H]2CS(=O)(=O)C[C@H]21 | 6 | -0.78 |
| CCOc1ccc(NC(=O)c2c(C(F)(F)F)n[nH]c2C)cc1 | 2 | -0.33 |
| COc1ccccc1[C@H]1CCN(S(=O)(=O)c2cccs2)C1 | -3 | 0.57 |
| O=C(CC1CCCC1)NCCc1csc(-c2ccccc2)n1 | 0 | -0.05 |
| Cc1cc(C(=O)Nc2nnc([C@H]3CC(=O)N(c4ccccc4)C3)o2)no1 | -4 | 0.57 |
| CC(C)(C)OC(=O)C1(NC(=O)c2cnccn2)CCCC1 | -17 | 2.58 |
| COc1ccc(Cl)cc1NC(=O)[C@H]1C[C@@H]2CCCN2[C@]12C(=O)Nc1c(C)cc(C)cc12 | 0 | 0.01 |
| C[C@@H](C(=O)NCC1(c2cccs2)CCCCC1)c1cncnc1 | -10 | 1.43 |

| SMILES | % Inhibition [%] | Z score |
| --- | --- | --- |
| Cc1onc(C(=O)N2CC(F)(F)C[C@H]2CN2CCCCC2)c1CN1CCCCC1 | -8 | 1.42 |
| COC(=O)C1C(c2ccccc2)N(c2ccccc2)OC1(C)O (centres undefined) | -16 | 2.08 |
| COC(=O)C1=C(C(=O)OC)SC(=C2C(=S)C(C)(C)N(C(=O)c3ccc4c(c3)OCO4)c3ccc(OC)cc32)S1 | 3 | -0.61 |
| CC(=O)N1CCn2c(nnc2[C@@H]2CCCN2Cc2c[nH]nc2-c2cccs2)C1 | -11 | 1.6 |
| Cc1nccn1-c1cncc(N(C)C[C@@H]2CCCN(C)[C@H]2c2ccnn2C)n1 | 4 | -0.76 |
| CCc1nn2c(c1-c1ccc(OC)c(S(=O)(=O)NCCc3cccs3)c1)NC(=O)CCC2=O | -3 | 0.32 |
| O=C(Cc1cnn(-c2ccccc2)n1)N1CCOC[C@@H]1CCO | 3 | -0.55 |
| COCCC[C@H]1CCCCN1C(=O)c1ccc2nonc2c1 | -2 | 0.28 |
| CCc1cccc(C)c1NC(=O)C1CCN(S(=O)(=O)c2cc3c(cc2C)NC(=O)[C@H](C)O3)CC1 | -1 | 0.15 |
| Cc1ccn(CC(=O)N2CC3CC2C3NC(=O)Cn2cc(C)cn2)c(=O)c1 (centres undefined) | -7 | 1.39 |
| CN(C)c1ncc(CN2CCCN(CC(=O)N3CCCC3)CC2)cn1 | -5 | 0.81 |
| CCCOc1ccc([C@H]2C(=O)N(C3CCC(C)CC3)CC(=O)N2C2CCCC2)cc1OC (some centres undefined) | -20 | 2.23 |
| C[C@@H](c1nc(CC(N)=O)nn1CCc1ccccc1)N1CCOCC1 | -20 | 2.05 |
| O=S(=O)(c1ccc2ccccc2c1)N(Cc1ccccc1)c1ccccc1 | 0 | 0.04 |
| CN(C)[C@@H]1C[C@@H](CO)N(CC(c2ccccc2)c2ccccc2)C1 | 9 | -1.24 |
| CS(=O)(=O)NCc1ccccc1N | -18 | 1.69 |
| O=C(Nc1ccc(C(=O)N2CCCCC2)cc1)c1ccc2c(c1)OCO2 | -13 | 2.53 |
| CN1CC2(CCN(C(=O)C3CCCCCC3)CC2)C[C@@H](c2ccccc2)C1=O | -7 | 1.38 |
| CCN1CCO[C@H](C(=O)Nc2ccc(N3CCCC3)c(C)c2)C1 | 1 | -0.07 |
| CCOC(=O)C(Cc1c(F)cccc1F)(NC(C)=O)C(=O)OCC | -4 | 0.58 |
| COc1cccc(-c2nnc3c4ccccc4nc(N4CCN(C(=O)C5CCC5)[C@@H](C)C4)n23)c1 | -1 | 0.22 |
| CN1CCC2(CC1)CN(CCOc1ccccc1)C(=O)O2 | -12 | 1.57 |
| CC(C)n1cc(C(=O)N2C[C@@H]3CC[C@H]2CN(C2Cc4ccccc4C2)C3)cn1 | -11 | 1.69 |
| CC1CC(c2ccsc2)CN1C(=O)c1nccnc1C(N)=O (centres undefined) | -11 | 1.38 |
| COc1ccc(C[C@H]2CCOC3(CCN(C(=O)c4ccc(OC)cc4OC)CC3)C2)cc1 | -7 | 1.47 |
| N#Cc1ccc(C(=O)N2CCc3c(CN4CCCC4)cccc32)nc1 | -7 | 1.04 |
